Source: the supplement of paper PMC9433436
± gives the standard deviation of the averaged measurements. Over roughly 4,100 sequences, “relative kcat/Km (krel) vs genomic leader AAAGAU” has its median near 1.7; the highest 2% begin near 6.5. The entries are a selection whose mix differs from that of the whole data set.

Biological target: T1, E. coli RNase P holoenzyme (M1 P RNA + rnpA protein) (UniProt P0A7Y8)
T1 sequence: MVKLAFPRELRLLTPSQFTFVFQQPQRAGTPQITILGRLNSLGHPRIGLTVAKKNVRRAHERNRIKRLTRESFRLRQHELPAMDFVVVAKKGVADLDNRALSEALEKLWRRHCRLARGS
Assay: relative kcat/Km (krel) vs genomic leader AAAGAU (relative (reference leader = 1)); higher = faster RNase P cleavage
Description: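 HTS-Kin: a pool of ptRNA-Met (21C construct) with all 4096 combinations of 5' leader nucleotides N(-6) to N(-1) was processed in vitro by E. coli RNase P (P RNA + rnpA/C5 protein) under multiple-turnover conditions at 37 C, pH 8, 17.5 mM MgCl2. Residual substrate was Illumina-sequenced at several fractions reacted, and relative kcat/Km (krel) was computed by internal competition kinetics, calibrated to the genomic leader (AAAGAU = 1). The listed hexamer is the varied N(-6)..N(-1) leader (DNA letters), and it sits between a fixed 5' stem-loop flank (GCAUGCACGAAAGUGCGUGCUAUGAA) and the mature tRNA-Met starting GGCUACGUAGCUCAGUUGG. Two technical replicates are averaged.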

[1] = fraction of substrate reacted: ~9-10% (9.79% repeat 1, 9.1% repeat 2)
[2] = fraction of substrate reacted: ~13-16% (15.68% repeat 1, 13.17% repeat 2)
[3] = fraction of substrate reacted: ~26-29% (28.66% repeat 1, 26.4% repeat 2)

Row | Sequence | relative kcat/Km [1] | relative kcat/Km [2] | relative kcat/Km [3]
1 | AAAATA | 1.99 ± 0.77 | 1.39 ± 0.27 | 1.48 ± 0.29
2 | TCAATA | 1.94 ± 0.68 | 1.41 ± 0.13 | 2.04 ± 0.44
3 | TCAGAT | 1.79 ± 0.51 | 1.84 ± 0.47 | 2.74 ± 1.1
4 | GGACAG | 1.29 ± 1.1 | 1.1 ± 0.61 | 2.25 ± 0.42
5 | CCACAA | 2 ± 1.3 | 1.11 ± 0.28 | 1.97 ± 0.076
6 | ATTGTC | 1.6 ± 1.2 | 1.13 ± 0.5 | 1.27 ± 0.089
7 | AATGAT |  | 0.785 ± 0.19 | 1.01 ± 0.46
8 | CCCAGA | 3.55 ± 1.8 | 3.71 ± 0.36 | 5.67 ± 1.6
9 | GAAAGA | 2.87 ± 0.97 | 2.67 ± 0.36 | 3.03 ± 0.93
10 | CTACGT | 0.396 ± 0.012 | 0.978 ± 0.12 | 1.13 ± 1.1
11 | TTGTAT | 2.5 ± 0.42 | 3.63 ± 0.7 | 5.73 ± 2.7
12 | TAGCCA | 1.23 ± 0.58 | 1.16 ± 0.53 | 1.5 ± 0.041
13 | TCAAGT | 0.352 ± 0.22 |  | 
14 | GTTAGC | 2.31 ± 1.2 | 2.84 ± 0.39 | 4.17 ± 1.6
15 | TTATGA | 4.01 ± 1.1 | 4.52 ± 1.5 | 6.17 ± 2.4
16 | GGCTGC | 2.18 ± 0.96 | 1.98 ± 0.51 | 3.23 ± 1.1
17 | TTTATG |  | 1.01 ± 0.36 | 2.41 ± 0.31
18 | GGTAAT | 1.63 ± 1.2 | 1.87 ± 0.11 | 3.01 ± 1.2
19 | CCCTCG | 1.92 ± 1 | 1.67 ± 0.5 | 2.44 ± 0.18
20 | GATGAG |  |  | 0.577 ± 0.44
21 | GGTAGG |  |  | 1.74 ± 0.56
22 | GCTTGC | 1.53 ± 0.25 | 2 ± 0.29 | 2.24 ± 0.16
23 | TTAATT | 2.28 ± 0.9 | 2.55 ± 0.086 | 3.26 ± 1.3
24 | TGCGCT | 1.39 ± 0.96 | 0.987 ± 0.66 | 0.931 ± 0.1
25 | TATGAT |  | 0.9949 ± 0.0058 | 1.35 ± 0.48
26 | ACTCAT | 2.15 ± 1.1 | 3.17 ± 0.74 | 4.67 ± 1.8
27 | AGTAGC | 2.5 ± 0.87 | 3.129 ± 0.0091 | 4.16 ± 1.5

Row | Sequence | relative kcat/Km [1] | relative kcat/Km [2] | relative kcat/Km [3]
28 | TACTAC | 5.21 ± 2 | 6.73 ± 1.9 | 9.59 ± 4
29 | CGGTCA | 1.35 ± 0.55 | 1.02 ± 0.14 | 1.03 ± 0.035
30 | GAGCGA |  | 1.11 ± 0.029 | 2.03 ± 0.083
31 | ATAACA | 0.435 ± 0.37 | 0.897 ± 0.17 | 1.43 ± 0.58
32 | ATAGTG |  | 0.232 ± 0.052 | 0.534 ± 0.12
33 | AGTCTA | 2.09 ± 0.71 | 2.64 ± 0.35 | 3.02 ± 0.93
34 | ATCCAA | 3.15 ± 0.43 | 4.2 ± 1.2 | 6.3 ± 2.3
35 | GGGAAC | 0.777 ± 0.4 | 0.986 ± 0.2 | 1.59 ± 0.99
36 | ACACTT | 1.46 ± 0.96 | 1.91 ± 0.27 | 2.34 ± 0.7
37 | ATAAGA | 1.69 ± 0.23 | 2.23 ± 0.39 | 3.63 ± 1.3
38 | CGCAGA | 3.15 ± 0.35 | 3.16 ± 0.97 | 5.53 ± 2.5
39 | GAGGGA |  |  | 1.45 ± 1
40 | GTTTGA | 2.67 ± 0.19 | 3.75 ± 1.1 | 5.98 ± 2
41 | CCATAC | 3.28 ± 1.1 | 3.35 ± 0.48 | 4.57 ± 1
42 | CATACT | 2.36 ± 0.94 | 1.75 ± 0.31 | 2.93 ± 1.1
43 | CTATAT | 4.48 ± 1.6 | 5.55 ± 0.85 | 7.37 ± 2.9
44 | GCGTAG | 0.68 ± 0.52 | 0.736 ± 0.18 | 1.76 ± 0.13
45 | GGTACA | 1.32 ± 0.12 | 1.26 ± 0.42 | 1.65 ± 0.83
46 | CCTGAG | 1.01 ± 0.076 |  | 1.43 ± 0.3
47 | CCGGCC | 1.66 ± 0.4 | 0.625 ± 0.54 | 
48 | AAGACA |  | 1.23 ± 0.58 | 1.27 ± 0.12
49 | TAATTA | 2.15 ± 1.5 | 2.05 ± 0.57 | 2.99 ± 1.1
50 | GGGTAG | 0.364 ± 0.18 | 0.447 ± 0.1 | 1.45 ± 0.65
51 | GTTTGC | 2.91 ± 0.62 | 3.18 ± 0.81 | 5.13 ± 1.9
52 | GATACA | 1.48 ± 1.3 | 1.55 ± 0.13 | 2.07 ± 0.37
53 | AGCAGA | 2.87 ± 1 | 3.03 ± 0.52 | 4.52 ± 1.2
54 | AGCGAT |  | 1.3 ± 0.62 | 1.74 ± 0.95

Row | Sequence | relative kcat/Km [1] | relative kcat/Km [2] | relative kcat/Km [3]
55 | GGGAAG |  | 0.702 ± 0.34 | 1.37 ± 0.3
56 | TGCGAC | 2.22 ± 0.51 | 2.13 ± 0.43 | 2.9 ± 0.61
57 | AGGAAG |  |  | 1.17 ± 0.35
58 | CGGCAC |  | 0.199 ± 0.051 | 1.36 ± 0.12
59 | ACGCAC | 1.83 ± 0.3 | 2.12 ± 0.95 | 3.59 ± 1.2
60 | CCCACA | 3.1 ± 1.1 | 2.72 ± 0.73 | 3.98 ± 1.2
61 | CAGTCC | 2.61 ± 1.2 | 2.57 ± 0.42 | 3.18 ± 1.2
62 | TCTTGG |  |  | 0.662 ± 0.22
63 | TGGAAT | 1.2 ± 1.2 | 1.38 ± 0.81 | 1.39 ± 0.72
64 | AACGTC | 3.14 ± 0.98 | 2.925 ± 0.0087 | 3.65 ± 1.3
65 | GTCCGG |  |  | 1.17 ± 0.26
66 | CTAGAT |  | 1.15 ± 0.17 | 1.83 ± 0.17
67 | GTGGGC |  |  | 0.684 ± 0.56
68 | AATACG |  |  | 1.3 ± 0.24
69 | TGTAAA | 3.21 ± 0.83 | 3.92 ± 0.81 | 5.91 ± 2.4
70 | CAGGGA |  | 0.949 ± 0.58 | 1.06 ± 1
71 | GGCGTG |  |  | 0.503 ± 0.2
72 | AAACAC | 1.97 ± 0.27 | 1.84 ± 0.73 | 3.04 ± 1.1
73 | GCAAAG |  |  | 0.616 ± 0.086
74 | ACCGTT | 1.28 ± 0.8 | 1.57 ± 1.3 | 2.09 ± 1.2
75 | ACGGTC |  |  | 1.71 ± 1.7
76 | CGGTCG | 0.745 ± 0.15 |  | 0.557 ± 0.52
77 | CTGCCA | 1.58 ± 1 | 0.692 ± 0.67 | 1.19 ± 0.3
78 | AGCTCG | 1.18 ± 0.16 | 1.15 ± 0.28 | 2.12 ± 0.41
79 | CTATCA | 1.75 ± 0.56 | 1.57 ± 0.39 | 2.66 ± 0.79
80 | AGCGAA | 3.33 ± 1 | 3.07 ± 0.78 | 4.19 ± 1.2
81 | CGTGCT |  |  | 0.773 ± 0.17

Row | Sequence | relative kcat/Km [1] | relative kcat/Km [2] | relative kcat/Km [3]
82 | TGATGA | 2.96 ± 1.2 | 3.7 ± 0.48 | 5.44 ± 1.6
83 | AGATAG | 2.15 ± 1.1 | 1.52 ± 0.42 | 3.47 ± 0.88
84 | CTGTCA | 2.15 ± 1.4 | 1.44 ± 0.43 | 1.96 ± 0.52
85 | TGTGTT |  |  | 1.29 ± 1.3
86 | TTCTGC | 4.12 ± 0.25 | 5.95 ± 2.2 | 8.28 ± 3.5
87 | GTTATA | 2.5 ± 1.4 | 2.5 ± 0.5 | 3.36 ± 1.1
88 | TGTCCC | 2.24 ± 0.07 | 2.39 ± 0.16 | 3.36 ± 1.3
89 | CTGCCC | 1.61 ± 0.018 | 0.948 ± 0.56 | 1.2 ± 0.47
90 | GATAGG | 0.642 ± 0.43 | 0.672 ± 0.65 | 0.997 ± 0.033
91 | CACACA | 3.18 ± 2.2 | 3.49 ± 0.55 | 4.58 ± 2.1
92 | CTAATC | 2.06 ± 1.6 | 1.32 ± 0.17 | 1.81 ± 0.34
93 | GTCAGG | 0.667 ± 0.23 | 1.03 ± 0.2 | 2.57 ± 1.1
94 | AACTCG | 1.54 ± 1.4 | 0.733 ± 0.27 | 2.22 ± 0.29
95 | TATGTG |  |  | 0.506 ± 0.12
96 | CGTCCA | 1.68 ± 1.7 | 1.5 ± 0.38 | 1.99 ± 0.085
97 | TTAGTC | 1.86 ± 0.93 | 2.21 ± 0.28 | 2.38 ± 1.1
98 | ACAATA | 1.13 ± 1.1 | 0.832 ± 0.79 | 1.73 ± 0.44
99 | ACTCCC | 1.78 ± 1.7 | 1.64 ± 0.38 | 1.8 ± 0.23
100 | AAGTAG |  | 1.2 ± 0.21 | 2.2 ± 0.72
101 | GATACG |  |  | 1.52 ± 0.09
102 | GATATA | 1.7 ± 0.6 | 1.98 ± 0.03 | 2.46 ± 0.75
103 | CACCGA | 3.39 ± 1.4 | 3.9 ± 0.93 | 6.22 ± 2.1
104 | CTTCGT |  |  | 1.66 ± 1.4
105 | CGATGT | 0.484 ± 0.21 | 1.12 ± 0.33 | 1.49 ± 0.93
